Experimental data reported in PMC10866649.
The source holds more than one record for some entries. They are shown here; other results are not. An entry can have further records. Values given together read as repeated measurements on other runs, samples or individuals; one of them may be the mean.

Molecular target: Wild-type human IgG1 Fc (human)
Assay: SPR + BLI; Fcs immobilised on chips or captured on biosensors; human or mouse FcRn at 1,600 nM to 50 nM in 2-fold dilutions, pH 6.0; Biacore 3000 and Octet K2 both named

Human neonatal Fc receptor (FcRn) (from UniProt P55899 24-297; P61769 21-119)
Kd: 138 nM, 845 nM, 1.88 µM [columns of one line]
